Data: PubChem BioAssay AID887 (National Center for Advancing Translational Sciences (NCATS), 2007)
Screen size: about 74,000 compounds; about 1,100 (1.5%) were called active. Inconclusive results, whose numbers are uncertain, are shown with a selection of clear calls. The call rests on the fitted dose curve; in most records, active means well fitted inhibition curve with a large enough effect; inconclusive means small, poorly fitted or top-dose-only effect; inactive means no such curve, though single readings can be large or run the other way. No potency is given beside an inconclusive call; the fits are too rough.

biological target: Polyunsaturated fatty acid lipoxygenase ALOX15 (Homo sapiens) (UniProt P16050); assay: qHTS Assay for Inhibitors of 15-hLO (15-human lipoxygenase); conditions: purified 15hLO-1, xylenol orange hydroperoxide absorbance; activity change, negative = inhibition: at 57.1 µM (top of the series) unless noted; further: nearly all actives have a fitted effect of over 55% in size
UniProt P16050, sequence (P16050 whole entry, looked up): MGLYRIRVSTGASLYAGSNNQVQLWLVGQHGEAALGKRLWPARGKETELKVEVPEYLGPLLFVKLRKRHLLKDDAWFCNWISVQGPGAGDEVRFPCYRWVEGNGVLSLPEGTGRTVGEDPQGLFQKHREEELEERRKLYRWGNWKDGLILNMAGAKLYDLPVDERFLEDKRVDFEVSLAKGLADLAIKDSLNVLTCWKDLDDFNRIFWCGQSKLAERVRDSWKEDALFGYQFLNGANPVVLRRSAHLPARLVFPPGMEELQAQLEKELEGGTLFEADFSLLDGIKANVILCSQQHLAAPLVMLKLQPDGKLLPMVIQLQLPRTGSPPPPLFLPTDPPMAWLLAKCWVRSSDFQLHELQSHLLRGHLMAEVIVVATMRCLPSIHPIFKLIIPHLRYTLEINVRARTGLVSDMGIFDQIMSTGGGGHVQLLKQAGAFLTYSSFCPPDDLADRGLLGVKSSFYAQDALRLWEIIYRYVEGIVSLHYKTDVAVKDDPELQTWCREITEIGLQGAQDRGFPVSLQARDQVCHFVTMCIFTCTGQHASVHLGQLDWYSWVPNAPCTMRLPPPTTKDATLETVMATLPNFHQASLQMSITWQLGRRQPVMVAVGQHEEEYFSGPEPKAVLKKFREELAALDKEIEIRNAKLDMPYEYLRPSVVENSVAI
Procedure, shortened: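 Purified human 15hLO-1 (40 nM) in 25 mM Hepes pH 7.5, 0.01% Triton X-100, preincubated 15 min RT with compound, then 50 uM arachidonic acid for 6 min. Hydroperoxide read by ferrous/xylenol orange, 30 min; 573/405 nm absorbance ratio gave progress.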
On the % scale 0 is the no-effect control and ±100 the full control effect; potency means the concentration at half of the fitted maximal effect; tags describe the fitted curve by direction and shape.

SMILES	Potency	activity change, negative = inhibition
CCn1c(SCC(=O)Nc2cc(OC)ccc2OC)nnc1C1CCCCC1	inactive	
Cc1cnc(CNc2cc(-c3ccc4c(c3)OCO4)ncn2)cn1	inactive	
CCCCCCNC(=O)Nc1ccc(S(=O)(=O)Nc2ccc(CCNC[C@H](O)COc3ccc(O)cc3)cc2)cc1	active: 7.94 µM	
N#Cc1c(N)sc2c1CCCCCC2	inconclusive [inhibitor, single point]	
Oc1ccccc1CNc1nc2ccccc2n1CCN1CCCCC1	active: 12.6 µM	
O=c1cc(-c2ccccc2Cl)c2c([nH]1)CCC2	inconclusive [inhibitor, single point]	
COCCOC(=O)c1[nH]c2c(c1C)C(=O)CC(c1ccco1)C2 (stereo unspecified)	inconclusive [inhibitor, single point]	
O=C(Nc1ccc2c(c1)OCO2)N1CCN(C/C=C/c2ccccc2)CC1	active: 31.6 µM	
COc1ccccc1S(=O)(=O)Cc1ccc(C(=O)NCCN2CCCCCC2)o1	inconclusive [inhibitor, full curve]	
COc1cccc2cc(C(=O)Nc3cccc(C)n3)c(=O)oc12	inactive	
COc1cccc(-c2nc(N(C)C)c3ccccc3n2)c1	inconclusive [inhibitor, partial curve]	
COC(=O)NC(c1cccs1)C(C(C)=O)C(=O)OC (stereo unspecified)		inactive: 23.3% [at 11.4 µM]
COc1ccccc1CNc1ncncc1-c1cccnc1	inconclusive [inhibitor, partial curve]	
CCOC(=O)CSc1nc2nc(C)cc(C)n2n1	inconclusive [inhibitor, single point]	
COC1=CC(=O)C(C(=O)c2ccccc2)=CC1=O	inconclusive [inhibitor, partial curve]	
Cc1ccc2[nH]c(=O)c(CN(Cc3ccc4c(c3)OCO4)Cc3nnnn3C3CCCC3)cc2c1	inconclusive [inhibitor, full curve, poor fit]	
CCNc1ncc2nc(-c3cc(F)cc(F)c3)c(=O)n(-c3ccccc3)c2n1	inconclusive [inhibitor, partial curve]	
CCc1ccc2[nH]c(=O)c(C(c3nnnn3CCOC)N3CCN(c4ccccc4)CC3)cc2c1 (stereo unspecified)	inconclusive [inhibitor, full curve, poor fit]	
CCOC(=O)CSC(C)C(=O)Nc1nnc(C(C)C)s1 (stereo unspecified)	inconclusive [inhibitor, single point]	
Nc1nnc(CCC2CCCCC2)s1	inactive	
C[N+]1(C)CCc2cc(O)c(O)cc2[C@H]1Cc1ccc(O)c(O)c1	inconclusive [inhibitor, full curve]	
